Measurements published in PubChem BioAssay AID686978 (National Center for Advancing Translational Sciences (NCATS), 2013).
Several values for one entry are separate records, joined by “and”; a condition that tells them apart may be missing. Equal values may be shown once. Out of some 420,000 compounds screened, about 64,000 (15%) were called active. Inconclusive means that the source gave no clear call. Such entries were picked first, then a sample of the others. Calls come from the whole dose curve; as a rule, active = well fitted inhibition curve with a large enough effect; inconclusive = small, poorly fitted or top-dose-only effect; inactive = flat fitted curve, though single readings scatter. Where the call is inconclusive, the potency comes from a doubtful curve fit.

assay: qHTS for Inhibitors of human tyrosyl-DNA phosphodiesterase 1 (TDP1): qHTS in cells in absence of CPT; details: DT40 Tdp1-/- hTDP1 cells, no CPT, ATP luminescence, 48 h; activity change, negative = growth inhibition: at 46.2 µM (top of the series) unless noted; note: nearly all actives have a fitted effect of over 55% in size
Method in brief: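 Luminescent ATP content (CellTiter-Glo) served as the growth readout. Knockout chicken DT40 cells expressing human TDP1 were exposed to compounds without camptothecin for a minimum 48 hr at 37 °C.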
% is set by controls: 0 for no effect and ±100 for the full control effect; potency is the fitted concentration of half-maximal effect; tags give direction and shape of the fitted curve.

| SMILES | Potency | activity change, negative = growth inhibition |
| --- | --- | --- |
| CN(C)c1cccc(Nc2ccc(-c3ccc(OC(F)(F)F)cc3)cn2)c1 | inconclusive: 20.6 µM [inhibitor, single point] |  |
| CCOC(=O)c1sc(Nc2nc(C)cc(OC)n2)nc1C | active: 13 µM |  |
| COc1ccc(C(=O)NCc2nnc(SCC(=O)NO)n2Cc2ccccc2)cc1 | inconclusive: 14.6 µM [inhibitor, partial curve] |  |
| COCCNC(=O)CSc1nc(-c2ccc(C)cc2)[nH]c1-c1ccc(OC)cc1 | inconclusive: 18.4 µM [inhibitor, single point] |  |
| Cc1c(C(=O)NCc2ccccc2C(F)(F)F)sc(=O)n1Cc1ccc(F)cc1 | inconclusive: 23.1 µM [inhibitor, single point] |  |
| CCc1cc(=O)oc2c(C)c(OCC(=O)NCCN3CCOCC3)ccc12 | inconclusive: 18.4 µM [inhibitor, single point] |  |
| O=C(NCC1OCCc2ccccc21)c1cc(COc2ccc(F)cc2Cl)on1 (stereo not drawn) | inconclusive: 23.1 µM [inhibitor, partial curve] |  |
| O=C(CSc1nc(=O)n(Cc2ccccn2)c2c1CCC2)Nc1cccc(Cl)c1 | inconclusive: 29.1 µM [inhibitor, single point] |  |
| O=C(CC(c1ccccc1)c1cc(Cl)ccc1O)N1CCOCC1 (stereo not drawn) | inconclusive: 14.6 µM [inhibitor, partial curve] |  |
| COC(=O)[C@]1(Cc2ccccc2)N[C@H](CN(C)S(=O)(=O)c2ccc(-c3ccccc3)cc2)[C@@H]2C(=O)N(C)C(=O)[C@@H]21 | active: 20.6 µM |  |
| Cc1ccccc1OCC(=O)N1N=C(c2cccnc2)CC1(O)C(F)(F)F (stereo not drawn) | inconclusive: 16.4 µM [inhibitor, single point] |  |
| COc1cccc(NC(=O)CSc2ncnc3c2cnn3Cc2ccccc2)c1 | inconclusive: 29.1 µM [inhibitor, single point] |  |
| COC(=O)Nc1ccc(S(=O)(=O)N2CCCC(C(=O)N3CC(C)OC(C)C3)C2)cc1 (stereo not drawn) | inactive |  |
| O=C(Nc1ccc(Cl)cc1F)c1cc(S(=O)(=O)NC2CCCCCC2)ccc1F | inconclusive: 29.1 µM [inhibitor, single point] |  |
| CC1CCC(NC(=O)C2c3ccccc3C(=O)N2Cc2ccc3c(c2)OCO3)CC1 (stereo not drawn) | inconclusive: 29.1 µM [inhibitor, single point] |  |
| CC(C)CCNC(=O)C1CCC(CNS(=O)(=O)c2cccc3nsnc23)CC1 (stereo not drawn) | inconclusive: 6.51 µM [inhibitor, partial curve] and inconclusive: 29.1 µM [inhibitor, single point] |  |
| Cc1ccc(S(=O)(=O)N(C)CC(=O)Nc2cccc3c2CCCC3)cc1 | inconclusive: 11.6 µM [inhibitor, partial curve] |  |
| COc1ccc2nc(NC(=O)c3ccco3)sc2c1 | inconclusive: 18.4 µM [inhibitor, partial curve] |  |
| CCN(CC)S(=O)(=O)c1ccc(NC(=O)CSc2cccc[n+]2[O-])cc1 | inactive |  |
| Cc1cc(NC(=O)CSc2nc(C(C)C)nc3c2c(=O)n(C)c(=O)n3C)no1 | active: 16.4 µM |  |
| CN(C)c1ccc(/C=N/N(CCO)C2=NS(=O)(=O)c3ccccc32)cc1 | inactive |  |
| COc1ccc(C)cc1S(=O)(=O)Nc1ccccc1 | inactive |  |
| COc1ccccc1CNc1ncnc2ccc(-c3ccc4c(c3)OCO4)cc12 | inactive |  |

| SMILES | Potency | activity change, negative = growth inhibition |
| --- | --- | --- |
| CCCCNC(=O)OC(C)CNC(=O)OC (stereo not drawn) | inactive |  |
| Cc1cc(N2CCN(c3ccc(F)cc3)CC2)n2cnnc2n1 | inconclusive: 18.4 µM [inhibitor, single point] |  |
| Cc1cc(/C=C(\C#N)C(=O)Nc2ccc(F)cc2)c(C)n1-c1ccc(N2CCOCC2)c([N+](=O)[O-])c1 | active: 11.6 µM |  |
| COc1ccc2c(Cl)c(C(=O)N/N=C/c3ccc4c(c3)OCO4)sc2c1 | inconclusive: 23.1 µM [inhibitor, single point] |  |
| Cc1ccc(C(=O)c2cn(Cc3ccccc3)c3ccccc3c2=O)cc1 | active: 20.6 µM |  |
| Cc1cccc(NC(=O)c2oc3ccccc3c2NC(=O)Cc2coc3cc(C)cc(C)c23)c1 | inconclusive: 25.9 µM [inhibitor, single point] |  |
| Cc1cc(C)n2ncc(C(=O)NC3CCCCC3)c2n1 | inconclusive: 16.4 µM [inhibitor, single point] |  |
| O=C(/C=C/c1ccc(F)cc1)NCCC1=CCCCC1 | active: 16.4 µM |  |
| CCCNC(=O)C1(C)CCCN(Cc2c(F)cccc2F)C1 (stereo not drawn) | inconclusive: 20.6 µM [inhibitor, single point] |  |
| CCCCC(O)(CCCC)C(=O)NN(C(=O)OCC)c1ccccc1 | inconclusive: 29.1 µM [inhibitor, single point] |  |
| O=C(CSc1ncccn1)c1ccccc1Br |  | inconclusive: -1.89% [inhibitor] |
| COc1ccc(Cl)cc1NC(=O)CSc1nc(=O)[nH]c2c1CCC2 | inconclusive: 18.4 µM [inhibitor, single point] |  |
| Cc1cccc(-n2ncc3c2CCCC3NC(=O)c2ccncc2)c1C (stereo not drawn) | active: 0.231 µM |  |
| CCOc1ccc(S(=O)(=O)n2nc(C)cc2C)c2ccccc12 | inconclusive: 18.4 µM [inhibitor, single point] |  |
| O=C(O)c1cc(S(=O)(=O)O)ccc1O |  | inconclusive: -32.3% [inhibitor] |
| CC(C)OC(=O)N(C)C[C@@H]1OCc2ccccc2-c2c(n(C)c3ccccc23)C(=O)N([C@@H](C)CO)C[C@H]1C | inactive |  |
| CC1(C)C[C@H](O)[C@@]23C[C@@H](OC2=O)[C@]2(C)C(=CCC4[C@@]5(C)CC[C@H](O)C(C)(C)C5CC[C@]42C)[C@@H]3C1 (stereo partly drawn) | inconclusive: 20.6 µM [inhibitor, partial curve] |  |
| Cc1cccc(NC(=O)COC(=O)c2c(-c3ccccc3)noc2C)c1 | inconclusive: 29.1 µM [inhibitor, single point] |  |
| CC1(C)CC(=O)C2=C(C1)C(c1cn(-c3ccccc3)nc1-c1ccccc1)C(C#N)=C(N)O2 (stereo not drawn) | inconclusive: 29.1 µM [inhibitor, single point] |  |
| COc1ccc(-c2csc(NC(=O)CSc3ncn[nH]3)n2)cc1OC | inconclusive: 16.4 µM [inhibitor, partial curve, poor fit] |  |
| COC(=O)C(CCC(=O)CN1C(=O)c2ccccc2C1=O)N1C(=O)c2ccccc2C1=O (stereo not drawn) | inactive |  |
| O=C(N/N=C/c1ccccn1)c1ccc(NC(=O)c2ccccc2Cl)cc1 | inconclusive: 23.1 µM [inhibitor, single point] |  |
| O=C(NCc1ccccc1)C1CC(=O)N(c2ccc(OCC(=O)N3CCOCC3)cc2)C1 (stereo not drawn) | inactive |  |

| SMILES | Potency | activity change, negative = growth inhibition |
| --- | --- | --- |
| Clc1ccc(-c2csc3ncnc(Sc4nnnn4-c4ccccc4)c23)cc1 | active: 2 µM |  |
| COc1ccccc1C1CCN(C(=O)c2ccccc2)CC1 | inconclusive: 18.4 µM [inhibitor, single point] |  |
| COc1ccccc1C1CN=NC12CCCc1ccccc1C2=O (stereo not drawn) | inconclusive: 29.1 µM [inhibitor, single point] |  |
| CC(NC(=O)/C=C/c1ccc(Br)cc1)c1ccc(Cl)cc1 (stereo not drawn) | inconclusive: 7.31 µM [inhibitor, partial curve] |  |
| CC(Sc1ncnc2sccc12)C(=O)Nc1ccc(S(=O)(=O)N2CCOCC2)cc1 (stereo not drawn) | inactive |  |
| CCn1ncc(Br)c1C(=O)Nc1ccc(F)cc1F | inconclusive: 18.4 µM [inhibitor, partial curve] |  |
| COC(=O)N/N=C/c1cn(Cc2ccc(Cl)cc2Cl)c2ccccc12 | inconclusive: 23.1 µM [inhibitor, single point] |  |
| COc1ccc(Cl)cc1C(=O)CSc1nc(N)cc(N)n1 | inconclusive: 23.1 µM [inhibitor, single point] |  |
| Cn1c(=O)c2c(nc(CN3CCc4ccccc4C3)n2Cc2ccc(Cl)cc2)n(C)c1=O | inactive |  |
| O=C(NCCCN1CCCC1=O)c1cc(=O)c2ccccc2o1 | inactive |  |
| Cc1cccc(CN2C(=O)c3ccccc3Sc3ccc(C(=O)NCCCN4CCOCC4)cc32)c1 | inactive and inconclusive: 29.1 µM [inhibitor, single point] |  |
| O=C(Nc1nc2ccccc2n1CCOc1ccccc1Cl)c1ccccc1 | inconclusive: 6.51 µM [inhibitor, partial curve] |  |
| CC(=O)/C(=N/Nc1cccc(Cl)c1)N1CCOCC1 | inconclusive: 18.4 µM [inhibitor, single point] |  |
| Cc1cccc(N)c1-c1c(C)cccc1N | inactive |  |
| O=C(Nc1ccccc1F)c1ccc2nc(N3C(=O)CCC3=O)sc2c1 | inconclusive: 3.26 µM [inhibitor, single point] |  |
| CC(=O)Nc1ccc(NC(=O)C(C)OC(=O)c2cccc(S(=O)(=O)N3CCCCCC3)c2)cc1 (stereo not drawn) | inconclusive: 9.2 µM [inhibitor, partial curve] |  |
| COc1cc(NC(=O)Cn2cnc3c(SC)nc(N)nc32)cc(OC)c1OC | inactive |  |
| COc1cc(OC)c(C(=O)NC23CC4CC(CC(C4)C2)C3)cc1OC | active: 18.4 µM |  |
| Cc1cccc(C)c1-n1nnnc1C1(C)CCC(=O)N1Cc1cccnc1 (stereo not drawn) | inactive |  |
| NNc1ccc(Cc2ccc(Cl)cc2Cl)nn1 | inconclusive: 23.1 µM [inhibitor, single point] |  |
| Cc1sc2ncnc(SCC(=O)NC(=O)NCc3ccco3)c2c1C | inactive |  |
| COC(=O)[C@@]1(Cc2ccc(OC)cc2)[C@H]2c3cc(C(=O)N4CCCC4)n(CCc4c[nH]c5ccccc45)c3C[C@H]2CN1C(=O)c1ccccc1 | inconclusive: 20.6 µM [inhibitor, single point] |  |
